We go through 79 sequences from the supplement of paper PMC10126150.

Sequences with one replicate were seen in a single cluster, so their values are uncertain.

The series deals with ATP. Put plainly: switch fluorescence ratio, 500 uM ATP over buffer (Cy3 cluster intensity, sum of 5 cycles each) (fold (ratio)); higher = stronger signal-on switching upon ATP binding; sequences stand for … in TCGTCGGCAGCGTCAGATGTGTATAAGAGACAGTTTTTTTTTTTTTTTTTTTTTTTTT…TC. Particulars: aptamer strand: ATP DNA aptamer (quencher-CACCTGGGGGAGTATTGCGGAGGAAGG + anchor), 100 nM annealed; ATP concentration: 500 uM; one replicate. The method, boiled down: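 Clusters with intensities outside 100-1000 RFU were excluded. The remaining Cy3-labelled switching-strand clusters on a modified Illumina MiSeq flow-cell had been annealed to 100 nM quencher-labelled ATP aptamer and imaged in selection buffer, then after 15 min with 500 uM ATP at 22 °C, for five cycles separated by NaOH stripping and re-annealing. The fluorescence ratio, averaged per switch-domain sequence, is each cluster's summed target-cycle Cy3 intensity over its summed buffer-cycle Cy3 intensity.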
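Note: ATP exposure 15 min at 22 °C before imaging.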

Take TTTATACGG: the switch fluorescence ratio was 0.99. On to TTCCCAGTGG, for which the switch fluorescence ratio was determined as 1.19. Next, CCATTAAAAT: 1.01. In the case of TATGGCGCT, the switch fluorescence ratio worked out at 1.04. Turning to TGGTAGCTTA, the switch fluorescence ratio is 1.01. Next, ATAGTTAACC: 1.06; AGCTGTAACT: 0.967; GGGACATGGT: 1.01.

On to TAACTAGAAT, for which the switch fluorescence ratio was 0.994. The figure for CCCGCATAAT is 4.86. In the case of TTGGTGACTT, the switch fluorescence ratio came out at 0.95.

As for ATGGAGAG, the switch fluorescence ratio is 1.05.

Regarding GCTAATAACA, the switch fluorescence ratio was 0.986. As to ACCTAGCTAT, the switch fluorescence ratio worked out at 1.13. Regarding AGACGCTGTA, the switch fluorescence ratio was 1.03. For TGGAACAGAG, the switch fluorescence ratio worked out at 1.03.

Regarding CGTATTAGTG, the switch fluorescence ratio was determined as 0.996. Next, AGTTTGGACG: 0.989. Turning to GACGAGCGAG, the switch fluorescence ratio worked out at 1.05.

As to ATTGTTGGGC, the switch fluorescence ratio stood at 0.984. The figure for GAGTGGAAAC is 1.03; for TTAATTTTG it is 0.985.

With TATTTAGCTG, the switch fluorescence ratio was determined as 0.959. The figure for ATATTTAAGC is 0.941; for CAAGGAAAAA it is 0.976.

For the sequence GAAGTCGATA, the switch fluorescence ratio was 1.11. Next, GCCCTGCTA: 1. Next, CTTCGCGGAA: 1.35; TAGGATATAA: 0.97; AAGCTGGATG: 0.994.

As to GTCGGAGTGA, the switch fluorescence ratio is 1.01. For AATAGCGGCA, the switch fluorescence ratio was 1.02.

Regarding TGAGCACCTG, the switch fluorescence ratio was 1.01. The figure for GCAGGCAGTA is 1.06; for GTGTCCACCT it is 1.06.

CCGAAGGTGG: the switch fluorescence ratio came out at 0.999. With AGCGATGGAG, the switch fluorescence ratio was 1.04.

As to ATCATGCAAG, the switch fluorescence ratio was 1.01. Consider ACTAAGTAAT, for which the switch fluorescence ratio was found to be 1.02. Next, CACAACGTTT: 1.01; GACAGTATTC: 1.05. The figure for GGTATATAGC is 1.03; for TAGTCATAAT it is 1; for ACTTATTGCA it is 1.01. As for TAAATGGGAG, the switch fluorescence ratio is 0.957.

For TCACAGCAG, the switch fluorescence ratio worked out at 1.1. Turning to TATTCGAGGT, the switch fluorescence ratio is 1.02.

Take TCTAAGTGCT: the switch fluorescence ratio is 0.973. On to ACCCCCGCTC, for which the switch fluorescence ratio was determined as 2.44. Next, GGACCACAAG: 1.04; TTAGAAAAGT: 0.968. For TGCAAGGACC, the switch fluorescence ratio was found to be 1.09. As for GTAGCATTCA, the switch fluorescence ratio was 1.17. The figure for ACGTATACAC is 1.47. The figure for TTTGATTGG is 0.971; for GCGATAATGC it is 1.48; for AATGCTGCGA it is 1.02.

With GGTTTCAATT, the switch fluorescence ratio was 0.989.

TATTGCAC: the switch fluorescence ratio was found to be 1.07.

Regarding CGGCACAAGT, the switch fluorescence ratio turned out to be 1. The figure for GGGAGTGTCT is 1.01; for TAAGGTTTCC it is 1.02.

For the sequence TTTTGCATAC, the switch fluorescence ratio worked out at 3.48. GAGTGCCTGC: the switch fluorescence ratio was 1.04.

For the sequence CTGGTCATGG, the switch fluorescence ratio is 1.02.

With TGAAAACCG, the switch fluorescence ratio is 1.

TGATTAGTGC: the switch fluorescence ratio amounted to 1.

With GTGCGAAT, the switch fluorescence ratio is 1. Next, TTCAGGCTGC: 0.998; ATAGCTGTA: 0.892. Next, TGGGGTGCC: 0.987; TTGCTATCTA: 1.05; ATATTTATCT: 0.997.

In the case of AGCCCCCGGA, the switch fluorescence ratio worked out at 1.06. Consider ATATTCCTTG, for which the switch fluorescence ratio worked out at 1.02.

Consider GCGTTCGGA, for which the switch fluorescence ratio turned out to be 1.03. Next, ATCACGGTTC: 0.971; GCAAGAAACA: 1.01; TAATTGTGGC: 0.929.
